According to PubChem BioAssay AID485281 (National Center for Advancing Translational Sciences (NCATS), 2010):
Where “and” joins values, the source holds several entries; their conditions need not be identical. Equal values may be shown once. Screen size: about 350,000 compounds; about 260 (0.074%) were called active. Inconclusive results, whose numbers are uncertain, are shown with a selection of clear calls. Calls follow the shape of the dose curve; as a rule, active = well fitted inhibition curve with a large enough effect; inconclusive = small, poorly fitted or top-dose-only effect; inactive = no such curve, though single readings can be large or run the other way. A potency beside an inconclusive call is a rough fit, not a confirmed value.

Biological target: Ferritin light chain (Equus caballus) (UniProt P02791)
Test: qHTS Assay for Identification of Novel General Anesthetics; also: nearly all actives have a fitted effect of over 20% in size
Conditions: apoferritin/1-aminoanthracene competitive binding, fluorescence; activity change, negative = displacement: at 77.5 µM (top of the series)
Summary of the method: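 Read-out: endpoint 1-AMA fluorescence, excitation 380 nm and emission 535 nm, after compounds sit 10 min at room temperature with 10 uM horse-spleen apoferritin in 50% saturated 1-AMA/PBS. Values come from four-parameter Hill fits.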
% is scaled to controls: 0 for no effect and ±100 for the full control effect; potency is read from the fitted curve at half-maximal effect; tags tell the direction and shape of the fitted curve.

UniProt P02791, sequence (P02791 whole entry, looked up): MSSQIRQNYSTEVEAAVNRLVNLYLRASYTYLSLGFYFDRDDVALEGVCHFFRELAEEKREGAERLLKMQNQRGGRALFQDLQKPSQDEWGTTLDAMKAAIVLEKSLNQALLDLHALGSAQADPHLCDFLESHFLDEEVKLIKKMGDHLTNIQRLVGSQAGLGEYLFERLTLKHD

| Compound | Potency | activity change, negative = displacement |
| --- | --- | --- |
| Cc1ccc(CNCc2cc3c(C(C)(C)C)nn(-c4ccccc4)c3[nH]c2=O)cc1 | inconclusive: 8.91 µM [inhibitor, full curve] |  |
| Cc1cc(C)nc(SCc2nnc(SCC(=O)N3CCCc4ccccc43)o2)n1 | inconclusive: 25.1 µM [inhibitor, partial curve] |  |
| N#C[C@H]1[C@H](c2ccccc2)[C@](C#N)(C(=O)c2ccccc2)[C@@H]2C=Cc3ccccc3N21 | inconclusive: 3.98 µM [inhibitor, full curve, poor fit] |  |
| COc1ccc(OC)c(NS(=O)(=O)c2ccc(Br)s2)c1 | inactive |  |
| CC(=O)Oc1c2c(c3c(c1CC=C(C)C)O[C@@]14C(=CC5CC1C(C)(C)OC4(C/C=C(\C)C(=O)O)C5=O)C3=O)OC(C)(CCC=C(C)C)C=C2 (stereo partly specified) | inconclusive: 50.1 µM [inhibitor, single point] |  |
| O=C(O)C=C1C2CC3CC(C2)CC1C3 | inconclusive: 35.5 µM [inhibitor, partial curve] |  |
| COC(=O)NC(c1ccc(Cl)cc1)C(C(C)=O)C(=O)OC (stereo unspecified) |  | inactive: -1.12% [at 15.3 µM] |
| CC(C)c1ccc(NC(=O)CCNS(=O)(=O)c2cccc3nsnc23)cc1 | inconclusive: 35.5 µM [inhibitor, single point] and inconclusive: 39.8 µM [inhibitor, single point] |  |
| CCN(C(=O)CN1C(=O)c2ccc([N+](=O)[O-])cc2C1=O)C1CCCCC1 | inconclusive: 14.1 µM [inhibitor, partial curve] |  |
| CC1CC(C)CN(C(=S)Nc2ccc(SC(F)F)cc2)C1 (stereo unspecified) | inconclusive: 50.1 µM [inhibitor, single point] |  |
| Cc1cccc(NC(=O)CSc2nc(=O)n(Cc3cccnc3)c3c2CCC3)c1 |  | inactive: -16.5% |
| COc1cnc(SCc2ccc(Cl)cc2Cl)nc1Cl | inconclusive: 12.6 µM [inhibitor, partial curve] |  |
| Cc1ccc(NC(=O)Cn2c(=O)ccc3cc(S(=O)(=O)N4CCC(C)CC4)ccc32)cc1C | inconclusive: 50.1 µM [inhibitor, single point] |  |
| O=C(COc1ccc(Cl)cc1Cl)N1CCCCCC1 | inconclusive: 35.5 µM [inhibitor, partial curve] |  |
| Cc1ccc(NC2=C(Cl)C(=O)OC2OC(=O)c2ccccc2C)cc1 (stereo unspecified) | inconclusive: 3.98 µM [inhibitor, full curve] |  |
| O=C(/C=C/c1ccco1)OCc1nnc(-c2ccc(Cl)cc2)o1 | inconclusive: 39.8 µM [inhibitor, single point] |  |
| Cc1sc2ncnc(OCC(=O)c3ccc(S(=O)(=O)N4CCCC4)cc3)c2c1C | inconclusive: 14.1 µM [inhibitor, partial curve] |  |
| O=C(CC(=O)Nc1ccc(Br)cc1)Nc1ccc(Br)cc1 |  | inactive: -7.26% |
| Cc1cc(OCC(=O)N(C)C2CCCCC2)ccc1Cl | inconclusive: 31.6 µM [inhibitor, partial curve] |  |
| O=C(CNC(=O)C1COc2ccccc2O1)N/N=C\c1ccc(Cl)cc1 (stereo unspecified) | inconclusive: 14.1 µM [inhibitor, partial curve] |  |
| O=C(c1ccccc1)N1CCCC(c2ccc(Cl)cc2)=N1 | inconclusive: 15.8 µM [inhibitor, partial curve] |  |
| C=CCn1c(SCC(=O)NNC(=O)Nc2cccc(Cl)c2)nnc1-c1ccccc1 | inconclusive: 39.8 µM [inhibitor, single point] |  |

| Compound | Potency | activity change, negative = displacement |
| --- | --- | --- |
| CC1CCCCC1NC(=O)c1cc2ccccc2o1 (stereo unspecified) | inconclusive: 39.8 µM [inhibitor, single point] |  |
| Cc1ccccc1Nc1nc(N)nc(COC(=O)C2CCCCC2)n1 | inconclusive: 39.8 µM [inhibitor, partial curve] |  |
| CN1c2ccsc2/C(=N/NC(=O)c2c(F)cccc2F)CS1(=O)=O | inconclusive: 50.1 µM [inhibitor, single point] |  |
| Cc1cnc(C(=O)OCC(=O)NC2CCCCCCC2)cn1 | inconclusive: 15.8 µM [inhibitor, partial curve] |  |
| O=C(COc1ccccc1-c1ccccc1)NNC(=O)NC1CCCCC1 | inconclusive: 25.1 µM [inhibitor, partial curve] |  |
| O=C(c1ccc(Cl)cc1)c1ccc(OCC(O)CN2CCCCC2)cc1 (stereo unspecified) | inconclusive: 22.4 µM [inhibitor, partial curve] |  |
| Cc1cc(C(=O)Cn2nnc3ccccc3c2=O)c(C)n1Cc1cccs1 | inconclusive: 10 µM [inhibitor, partial curve] |  |
| O=[N+]([O-])c1ccc(C=Nc2ccc(Cl)cc2Cl)s1 | inconclusive: 50.1 µM [inhibitor, single point] |  |
| CCc1cc2c(-c3ccccc3)cc(=O)oc2cc1OC(C)C(C)=O (stereo unspecified) | inconclusive: 35.5 µM [inhibitor, partial curve] |  |
| O=C(Nc1ccccc1O)c1ccc(NC(=O)C2CC2)cc1 |  | inactive: -9.93% |
| Oc1c(Br)cc(/C=N/n2c(-c3ccccc3)n[nH]c2=S)cc1Br |  | inactive: -0.435% |
| COc1ccccc1OCC(=O)Nn1c(=S)[nH]c2ncccc2c1=O |  | inactive: -2.1% |
| CC/C=C/C(=O)N1CC2(CC(c3cccc(NC(=O)CC(c4ccccc4)c4ccccc4)c3)=NO2)C[C@@H]1C(N)=O (stereo partly specified) |  | inactive: -16.2% |
| CCc1ccc(CN2CCSCC2)cc1 | inconclusive: 31.6 µM [inhibitor, partial curve] |  |
| Cc1cc(N)n2nc(-c3ccc(C(C)(C)C)cc3)cc2n1 | inconclusive: 35.5 µM [inhibitor, partial curve] |  |
| CC(=O)N(OCc1ccccc1)[C@@H]1c2cc(C#N)ccc2OC(C)(C)[C@H]1O |  | inactive: -1.68% |
| COc1ccccc1N1CCN(C(=O)c2cc3ccccc3[nH]2)CC1 | inconclusive: 31.6 µM [inhibitor, partial curve] |  |
| COc1ccc(-n2c(SCC(=O)Nc3ccc4c(c3)OCO4)nnc2C(C)N2CCCCC2)cc1 (stereo unspecified) | inconclusive: 39.8 µM [inhibitor, partial curve] |  |
| CCOC(=O)c1[nH]c2ccccc2c1NC(=O)c1cc(OCC)c(OCC)c(OCC)c1 |  | inactive: 3.1% |
| O=c1c2ccccc2nnn1Cc1ccccc1Cl | active: 14.1 µM |  |
| COc1ccc(-c2noc(CSc3nnc(-c4ccncc4)n3-c3ccc(C)c(C)c3)n2)cc1 | inconclusive: 15.8 µM [inhibitor, partial curve] |  |
| O=C(NCc1ccco1)c1nnc(Cc2ccc(Cl)cc2)o1 | inconclusive: 25.1 µM [inhibitor, partial curve] |  |

| Compound | Potency | activity change, negative = displacement |
| --- | --- | --- |
| CCN(CC)S(=O)(=O)c1ccc(NC(=O)COC(=O)CN2C(=O)c3ccccc3C2=O)cc1 | inconclusive: 25.1 µM [inhibitor, partial curve] |  |
| CCOC(=O)N1CCC2(CC1)C(C#N)=C(N)Oc1n[nH]c(CSc3ccc(C)cc3)c12 | inconclusive: 25.1 µM [inhibitor, partial curve] |  |
| C=CCn1c(SCC(=O)NCc2ccc3c(c2)OCO3)nnc1C1CCCCC1 | inconclusive: 28.2 µM [inhibitor, partial curve] |  |
| CCOc1cc(/C=C2/C(=O)N(c3ccccc3)N=C2C)ccc1OC(=O)c1ccco1 | inconclusive: 50.1 µM [inhibitor, partial curve, poor fit] |  |
| CCn1c(SCc2ccc(C)cc2)nnc1-c1nn(-c2ccccc2)ccc1=O | inconclusive: 35.5 µM [inhibitor, partial curve] |  |
| O=C(O)c1cccnc1SCC(=O)C12CC3CC(CC(C3)C1)C2 | inconclusive: 44.7 µM [inhibitor, partial curve] |  |
| COCCNc1nc(-c2cc(C)c(C)cc2C)cs1 | inconclusive: 31.6 µM [inhibitor, partial curve] |  |
| CN1C(=O)CSC1=NCC12CC3CC(CC(C3)C1)C2 | inconclusive: 3.55 µM [inhibitor, full curve] |  |
| C[C@H](NC(=O)OCc1ccccc1)C(=O)NNC(=O)[C@H](C)NC(=O)OCc1ccccc1 |  | inactive: 6.48% |
| FC(F)(F)c1cc(-c2cccs2)nc(-n2cc(Br)cn2)n1 | inconclusive: 31.6 µM [inhibitor, partial curve] |  |
| Cc1cc2nc(SCCOC(=O)Nc3cccc(Cl)c3)nc(C)c2cc1C | inconclusive: 22.4 µM [inhibitor, partial curve, poor fit] |  |
| COc1ccc(-c2nc(NC3=NCCCCC3)sc2C)cc1 | inconclusive: 35.5 µM [inhibitor, partial curve] |  |
| COc1cc(/C=C/C(=O)OCC(=O)NCCC2=CCCCC2)ccc1O | inconclusive: 15.8 µM [inhibitor, partial curve] |  |
| O=C(NC1CCCC1)C(c1ccncc1)N(C(=O)c1ccco1)c1ccc(F)c(Cl)c1 (stereo unspecified) |  | inactive: -3.36% |
| NC(=O)CSCc1cccc(Br)c1 | inconclusive: 31.6 µM [inhibitor, partial curve] |  |
| COc1ccc(CNC(=O)CN2C(=O)c3ccc([N+](=O)[O-])cc3C2=O)cc1 | inconclusive: 44.7 µM [inhibitor, partial curve] |  |
| CC(=O)C1CCCN(C(=O)c2ccc3nc(Cc4cccc(Cl)c4)oc3c2)C1 (stereo unspecified) | inconclusive: 12.6 µM [inhibitor, partial curve] |  |
| O=C1CCC[C@H]2OC12[C@@H](O)CCc1ccccc1 (stereo partly specified) |  | inactive: 0.485% [at 15.3 µM] |
| COc1cc(C(=O)NCCC(C)C)ccc1OCc1ccc(Cl)cc1Cl | inconclusive: 4.47 µM [inhibitor, full curve] |  |
| Clc1ccc(OCCCNCc2ccccc2)c(Br)c1 |  | inactive: -9.63% |
| Cc1ccc2c(=O)cc(C(=O)Nc3nc4ccc(Cl)cc4s3)oc2c1 |  | inactive: -3.46% |
| Cc1cccc(-c2cc3nc4c(c(N5CCOCC5)n3n2)CCCC4)c1 |  | inactive: -13.6% |
